Laboratory results as given in PMC4336329 (PLoS ONE, 2015).
Screen size: about 310,000 compounds; about 14,000 (4.5%) showed an effect of 50% or more. The effect is printed as a negative number. Some of the results follow.

Target: human ether-à-go-go-related gene (hERG) potassium channel (human, UniProt Q12809)
Assay: primary screen, population patch clamp on CHO cells stably expressing hERG
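Also: peak tail current of the secondary pulse compared with the same well before compound.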

Chain of human ether-à-go-go-related gene (hERG) potassium channel (Q12809 whole entry, looked up): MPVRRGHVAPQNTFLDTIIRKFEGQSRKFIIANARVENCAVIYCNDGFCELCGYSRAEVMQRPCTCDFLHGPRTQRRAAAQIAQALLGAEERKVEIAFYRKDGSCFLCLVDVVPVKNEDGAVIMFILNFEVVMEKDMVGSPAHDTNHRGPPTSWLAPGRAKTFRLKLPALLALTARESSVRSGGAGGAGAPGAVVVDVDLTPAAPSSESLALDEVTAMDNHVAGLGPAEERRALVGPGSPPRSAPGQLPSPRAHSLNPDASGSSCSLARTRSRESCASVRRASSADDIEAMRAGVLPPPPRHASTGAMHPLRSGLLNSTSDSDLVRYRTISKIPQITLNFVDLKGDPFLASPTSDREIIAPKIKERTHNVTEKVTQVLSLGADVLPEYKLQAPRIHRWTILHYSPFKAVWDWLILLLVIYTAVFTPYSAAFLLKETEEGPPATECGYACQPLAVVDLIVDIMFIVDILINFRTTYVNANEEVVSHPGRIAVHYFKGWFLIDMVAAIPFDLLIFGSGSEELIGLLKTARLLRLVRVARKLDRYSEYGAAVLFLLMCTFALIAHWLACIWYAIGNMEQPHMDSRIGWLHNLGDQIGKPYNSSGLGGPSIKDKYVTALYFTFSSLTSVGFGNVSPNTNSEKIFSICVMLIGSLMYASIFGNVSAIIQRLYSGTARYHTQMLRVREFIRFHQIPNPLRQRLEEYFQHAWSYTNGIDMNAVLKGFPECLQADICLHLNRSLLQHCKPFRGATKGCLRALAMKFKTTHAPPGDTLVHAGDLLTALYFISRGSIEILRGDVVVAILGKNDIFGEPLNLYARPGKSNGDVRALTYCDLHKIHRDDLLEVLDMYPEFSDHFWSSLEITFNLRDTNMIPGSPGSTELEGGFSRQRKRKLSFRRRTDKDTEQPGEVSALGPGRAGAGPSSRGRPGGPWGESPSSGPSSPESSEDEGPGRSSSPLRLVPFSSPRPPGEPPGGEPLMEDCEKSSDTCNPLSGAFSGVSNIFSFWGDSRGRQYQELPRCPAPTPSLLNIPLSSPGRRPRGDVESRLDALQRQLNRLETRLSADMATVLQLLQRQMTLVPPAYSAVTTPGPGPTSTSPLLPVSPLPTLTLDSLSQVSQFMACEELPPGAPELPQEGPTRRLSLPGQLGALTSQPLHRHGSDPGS

SMILES | hERG current change (%, negative = inhibition) at 10uM
COC(=O)c1ccccc1NC(=O)N[C@@H](C)C(=O)OC | -2.03%
O=C(Nc1cccc(NC(=O)c2ccccc2Cl)c1)c1ccco1 | 1.84%
COc1ccccc1CCNC(=O)c1nc(-c2cccs2)no1 | -12.3%
Cc1cnc(Nc2nc3ccccc3o2)nc1C(=O)Nc1cccc(C(F)(F)F)c1 | -13.8%
CCN(CC)C(=O)c1sc2nc(N3CCOCC3)c3c(c2c1N)CCCC3 | 3.98%
Cc1ccc(S(=O)(=O)N2[C@@H](c3ccccc3)C(C(=O)O)=CC[C@H]2c2cccc(C)c2)cc1 | 14.1%
COc1ccc(Nc2cc(Cl)ccc2C(=O)O)cn1 | 12.6%
CN(C)CC1CSCCC1(O)c1ccc(C(F)(F)F)cc1.Cl (centres unmarked) | 8.26%
CC(C)(C)n1nnnc1C(c1cc2cc3c(cc2[nH]c1=O)OCCO3)N1CCSCC1 (centres unmarked) | -10.6%
COC(=O)c1ccc(CNC(=O)/C=C/c2cc([N+](=O)[O-])ccc2OC(F)F)cc1 | 6.89%
N#CCCCCN1CCCC1 | 4.2%
CC(=O)Nc1ccc(Sc2ccccc2C(=O)O)c(C(=O)O)c1 | 19.4%
Cc1ccc(NC2CCCN(C(=O)c3ccccc3-c3ncc[nH]3)C2)cc1C (centres unmarked) | 7.65%
CC(=O)CC(=O)Nc1ccn(-c2ccccc2)n1 | -0.191%
COc1cccc(-c2c(C(=O)N/N=C(\C)c3ccncc3)nnn2-c2nonc2N)c1 | -22%
O=c1cc(CN2CCOCC2)c2cc(Cl)c(O)cc2o1 | -15.7%
Cc1ccc(-c2nc3c4ccccc4ccn3c2CN2CCCCC2)cc1.Cl | -3.77%
CC(=O)Nc1cc(-c2ccccc2)nn1Cc1ccc(Cl)cc1 | 14.9%
Cc1onc(-c2ccccc2Cl)c1C(=O)OCC(=O)c1c(N)n(C)c(=O)n(C)c1=O | -9.6%

SMILES | hERG current change (%, negative = inhibition) at 10uM
COc1cccc(Cn2c(=O)sc3ccccc3c2=O)c1 | -9.92%
Cc1cccc(NC(=O)CCN2CCC(C)CC2)c1 | -8.23%
CC(C)c1ccc(/C=C2\SC(=S)N(CCC(=O)NCCCn3ccnc3)C2=O)cc1 | -17.3%
COc1ccc([C@@H]2[C@@H]3C(=O)N(C(C)(C)C)C(=O)[C@@H]3[C@]3(Cc4ccc(Cl)cc4)C(=O)N(c4ccc(C)cc4)C(=O)N23)cc1 | 9.38%
COc1cc(NC(=O)/C=C/c2ccccc2)c(C(=O)O)cc1OC | 6.63%
CCCCCC1CC(CC(=O)Nc2ccc([N+](=O)[O-])cc2)OC1=O (centres unmarked) | -53.1%
COCc1nc2oc3ccc(C)cc3c(=O)c2cc1C(=O)OC | 14.7%
COc1ccc(-n2c(CN3CCN(C)CC3)nc3ccc([N+](=O)[O-])cc3c2=O)c(OC)c1 | -38.4%
COc1ccc(/C=C2\C(=O)N(c3c(Cl)cc(Cl)cc3Cl)N=C2NC(=O)c2cccc([N+](=O)[O-])c2)cc1 | 6.99%
CCC(C)c1ccccc1NC(=O)c1cc2cccc([N+](=O)[O-])c2[nH]1 (centres unmarked) | -5.8%
Cc1cccc2cc(/C=C3\N=C(c4ccccc4)OC3=O)c(N3CCOCC3)nc12 | -5.69%
Cc1ccc(NC2CCCN(C(=O)c3ccc4[nH]ccc4c3)C2)cc1C (centres unmarked) | 6.01%
COCC(C)NC(=O)c1ccc(CN2CCc3ccccc3C2)cc1 (centres unmarked) | 9.43%
CCC(=O)N(Cc1cc2ccc(C)cc2n2nnnc12)C1CCCCC1 | -32.3%
COc1ccccc1-c1noc(-c2ccccc2C(=O)Nc2ccccc2)n1 | 13.9%
O=C(NCCN1CCOCC1)c1noc2c1CCc1ccccc1-2 | -16.8%
CCOc1c(Cl)cc(C(=O)Nc2cccc(C(=O)O)c2)cc1Cl | 24.6%
CSc1cccc(NC(=O)COc2ccccc2C)c1 | 12.4%
Cc1cc(OCC(=O)C(C)(C)C)c2c(C)c(C)c(=O)oc2c1 | 14.8%

SMILES | hERG current change (%, negative = inhibition) at 10uM
CCN1CC(CN(C)Cc2nc(-c3ccc(C(F)(F)F)cc3)oc2C)CC1=O (centres unmarked) | -51.5%
Cc1cnnn1-c1ccc([N+](=O)[O-])cc1 | 23.5%
CC(C)(C)NC(=O)c1ccc2c(c1)C(=O)N(C1CCCCC1)C2=O | -22.7%
Cc1ccc2[nH]c3c(c2c1)CN(C(=O)CN1CC(C)OC(C)C1)CC3 (centres unmarked) | 4.51%
CSc1nnc(SCC#N)s1 | 8.95%
CC(C)=CCN1CCN(Cc2ccoc2)CC1CCO (centres unmarked) | 14.2%
COc1cccc(NC(=O)CN(C)CC(=O)NCc2ccc3c(c2)OCO3)c1 | -21.2%
O=C(CCS(=O)(=O)c1ccccc1Cl)NCc1ccc(F)cc1 | -25.6%
Cc1nc2sc(C(c3ccco3)N3CCN(c4ccccc4F)CC3)c(O)n2n1 (centres unmarked) | 0.233%
CCOC(=O)c1c(-c2ccccc2)csc1NC(=O)c1nn(CC)cc1Br | 6.4%
COCCNC(=O)CN1C(=O)COc2ccc(S(=O)(=O)N3CCCCCC3)cc21 | 20.3%
Cc1ccc(OCC(=O)Nc2ccc3c4c(cccc24)CC3)c(C)c1 | 10.4%
CCC(C(=O)NC1CCCC1)n1c(SCc2cccc(C)c2)nc2ccncc21 (centres unmarked) | -19.7%
COCCCNC(=O)CC(C)c1ccccc1 (centres unmarked) | 11.2%
CC(C)(C)c1cc(C(=O)Nc2cccc3ccccc23)ccn1 | -8.18%
CC(=O)Nc1ccc(NC(=O)COc2cc(C)cc3oc(=O)cc(C)c23)cc1 | 22.7%
O=C(NC1CCCC1)C1CCCN(S(=O)(=O)c2cccc3cccnc23)C1 (centres unmarked) | 1.27%
O=c1[nH]c(CSc2nnc(-c3ccncc3)n2Cc2ccco2)nc2ccccc12 | -58.2%
